In PubChem BioAssay AID652104 (National Center for Advancing Translational Sciences (NCATS), 2013):
Screen size: about 410,000 compounds; about 7,200 (1.8%) were called active. Inconclusive means that the source gave no clear call. Such entries were picked first, then a sample of the others. Calls follow the shape of the dose curve; as a rule, active = well fitted activation curve with a large enough effect; inconclusive = small, poorly fitted or top-dose-only effect, or another doubt; inactive = no such curve, though single readings can be large or run the other way. Potencies beside an inconclusive call are fits to weak or partial responses and may not hold up.

assay: qHTS of TDP-43 Inhibitors; settings: TDP-43 expressing yeast growth rescue, BacTiter-Glo, 24 h; growth rescue (activation): at 46.1 µM (top of the series) unless noted; also: nearly all actives have a fitted effect of over 50% in size; as to growth rescue (activation): % of control where 0% means no effect
Procedure, shortened: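 Galactose-induced TDP-43 yeast, OD600=0.02, compound pinned; 24 hr, 30 deg C; BacTiter-Glo luminescence for growth. Inhibitors of TDP-43 toxicity read as activators.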
Potency is read from the fitted curve at half-maximal effect; tags tell the direction and shape of the fitted curve.

Potency, inactive:
Cc1c(C)c2ccc(OC(C)C(=O)NCCCn3ccnc3)c(C)c2oc1=O (stereo not given)
COc1cccc(CNC(=O)CC(c2ccc(F)cc2)N2Cc3ccccc3C2=O)c1 (stereo not given)
Oc1c(Br)cc(Br)cc1CNc1ccc(F)cc1
Cc1ccc(C2=Nc3ccccc3NC(c3ccncc3)=N2)cc1
NC(=S)c1ccc[n+]([O-])c1
COc1ccc(CNC(=O)[C@@H](Cc2ccccc2)NC(=O)CC[C@H]2O[C@@H](n3ccc(=O)[nH]c3=O)[C@H](O)[C@@H]2O)cc1
Cc1ccsc1C(=O)OCC(=O)NCCC1=CCCCC1
CCc1c(C)c(C#N)c2nc3ccccc3n2c1NC
COc1ccc(-c2cc(C(=O)Nc3c(Cl)cccc3Cl)no2)cc1OC
CNC(=O)c1ccc(-c2sc3nc(N4CCOCC4)c4c(c3c2N)CC(C)(C)OC4)o1
CCCN(CCC)CCCNC(=O)c1sc2nc3n(c(=O)c2c1C)CCC3
Nc1cccc(CCc2nc3cc4ccccc4cc3[nH]2)c1
Cc1noc(C)c1C(=O)N1CCC1(C)C(=O)NS(=O)(=O)c1ccccc1C(F)(F)F (stereo not given)
COc1ccc(-n2cnc3c(N)nc(N)nc32)cc1
COc1ccccc1CN(C)C(=O)c1cc2ccccc2o1

Potency, active:
Cc1cccc(-c2nnc3n2N=C(c2ccccc2Br)CS3)c1 20 µM
C[C@@H](NC(=O)c1[nH]cnc1C(=O)Nc1ccccc1)c1ccccc1 22.4 µM
ON=C1c2ccccc2-c2ccc(Br)cc21 3.16 µM
Cc1cccc(C)c1NS(=O)(=O)c1ccc(-c2cnc(C3CC3)o2)cc1 25.1 µM
CN(C)S(=O)(=O)Oc1ccsc1C(=O)Nc1ccc(Cl)c(Cl)c1 22.4 µM
Cc1cc(C=O)c(C)n1-c1ccc(N2CCCCC2)c([N+](=O)[O-])c1 17.8 µM
Cc1c(C(=O)Nc2cccc(F)c2)cnn1-c1ccccc1 10 µM

Potency, inconclusive:
CCOc1ccc(NC(=O)c2ccc3nccnc3c2)cc1 2.51 µM [activator, full curve]
CCOC(=O)c1cnc(-n2nc(C)cc2C)[nH]c1=O 31.6 µM [activator, single point]
Cc1cccc(CSc2nc3ccncc3n2CC(=O)Nc2cc(C)cc(C)c2)c1 11.2 µM [activator, partial curve]
CC1Cc2nc(SCC(=O)N3CCN(c4ccccc4)CC3)n(CCc3ccccc3)c(=O)c2S1 (stereo not given) 31.6 µM [activator, partial curve]
CCOC(=O)c1c(C)n(C)c2ccc(OCC(O)Cn3nc(C)cc3C)cc12 (stereo not given) 11.2 µM [activator, single point]
COCCNC(=S)c1ccc(Br)cc1 22.4 µM [activator, single point]
COc1ccc(Nc2cc(C)nc(-n3nc(C)cc3C)n2)cc1Cl 1 µM [activator, full curve, poor fit]
O=C(COC(=O)Cc1ccsc1)NCC12CC3CC(CC(C3)C1)C2 15.8 µM [activator, single point]
CCOc1ccc(N(CC(=O)Nc2ccccc2C)S(=O)(=O)c2c(C)noc2C)cc1 0.794 µM [activator, full curve, poor fit]
CCCC(=O)Nc1ccc(C#Cc2ccccc2)cc1 5.01 µM [activator, partial curve]
Cc1cccc(-c2oc3ccccc3c2C#CCCO)c1 35.5 µM [activator, single point]
Cc1ccc(-c2cn3c(n2)sc2cc(C(=O)NCCCc4ccccc4)ccc23)cc1 0.355 µM [activator, full curve, poor fit]
Cc1cc(=O)[nH]c(SCc2csc(-c3ccccc3)n2)n1 12.6 µM [activator, single point]
Cc1cc(C)n2c(Nc3ccc4c(c3)OCCO4)c(-c3ccc(F)cc3)nc2n1 12.6 µM [activator, partial curve]
Cc1ccc(-c2cc(C(=O)O)n(Cc3ccccc3)n2)cc1 35.5 µM [activator, partial curve, poor fit]
CCC1(c2ccccc2)C(=O)N(C(=O)OC(C)(C)C)N1C(=O)OC(C)(C)C (stereo not given) 14.1 µM [activator, partial curve, poor fit]
COc1cc(-c2noc(C3CC(=O)N(c4ccc5c(c4)OCCO5)C3)n2)cc(OC)c1OC (stereo not given) 17.8 µM [activator, partial curve]
O=C(/C=C/c1ccc(Br)cc1)NC1CCCCCC1 3.55 µM [activator, partial curve]
CN(Cc1cccs1)S(=O)(=O)c1cccs1 31.6 µM [activator, single point]
Cc1ccccc1-c1nc(CS(=O)(=O)CC(=O)NC(C)c2ccccc2)c(C)o1 (stereo not given) 22.4 µM [activator, single point]
Cc1cccc(N2CCN(C(=O)c3ccccc3OCc3c(C)noc3C)CC2)c1C 35.5 µM [activator, single point]
Cc1ccc(NS(=O)(=O)c2ccc(-c3cc(C)no3)cc2)c(C)c1 20 µM [activator, single point]
COc1ccc(CNC(=O)CSCc2ccc(C)cc2)c(OC)c1 14.1 µM [activator, partial curve]
O=C(CSc1nnc(COc2ccccc2)n1-c1ccccc1)c1cccs1 22.4 µM [activator, single point]
O=C(c1ccc(Br)cc1)c1cc(-c2ccccn2)c(N2CCOCC2)s1 3.55 µM [activator, single point]
N/C(=N\OC(=O)c1ccc(Cl)cc1)c1[nH]ncc1Br 14.1 µM [activator, single point]
CC(=O)Nc1cnc(-c2ccc3c(c2)OCO3)cn1 35.5 µM [activator, partial curve, poor fit]
CN(Cc1ccccc1)c1nc2c(c(=O)[nH]c(=O)n2C)n1CCCc1ccccc1 31.6 µM [activator, single point]
CC(=O)c1c(C)cc(C)c(CSc2ccccn2)c1C 17.8 µM [activator, partial curve]
Cc1noc(C)c1-c1ccc(C(=O)NCc2ccccc2)c2occc12 31.6 µM [activator, single point]
O=C(Nc1ccc2c(c1)OCCO2)c1ccc(Cl)c(S(=O)(=O)N2CCCCC2)c1 31.6 µM [activator, single point]
Cn1c(SCc2cccc(C#N)c2)nc2ccccc2c1=O 7.94 µM [activator, single point]
COCCOC(=O)c1[nH]c2c(c1C)C(=O)CC(c1ccccc1)C2 (stereo not given) 25.1 µM [activator, partial curve]
CN(CCC#N)c1ncnc2scc(-c3ccccc3)c12 25.1 µM [activator, partial curve]
c1ccc(-c2cc(-c3nnc4n3N=C(c3ccc5ccccc5c3)CS4)[nH]n2)cc1 31.6 µM [activator, single point]
COc1ccc(-c2cc(C(=O)Nc3ccc(C)c(N)c3)c3ccccc3n2)cc1 31.6 µM [activator, single point]
CC(C)CCNC(=O)NC(=O)COC(=O)C1CCN(S(=O)(=O)c2ccccc2F)CC1 3.16 µM [activator, partial curve]
CC(=O)c1cc(C#N)c(SCC(=O)C(C)(C)C)nc1C 20 µM [activator, single point]
Cn1ncc(Cl)c1C(=O)Nc1ccc2c(c1)CCC2 14.1 µM [activator, partial curve]
COc1ccc(-c2ccc(=O)n(CC(=O)Nc3ccccc3C(F)(F)F)n2)cc1 1.78 µM [activator, full curve]
CC1=CCC2C(=O)N(c3cccc(C(=O)Nc4ccc(Cl)cc4)c3)C(=O)C2C1 (stereo not given) 28.2 µM [activator, single point]
COc1cccc(/C=N/Nc2ncnc(Cl)c2N)c1O 35.5 µM [activator, single point]
CSc1nc2sc3c(c2c2nncn12)CCC3 35.5 µM [activator, single point]
O=C(CCCc1c[nH]c2ccccc12)NCC1COc2ccccc2O1 (stereo not given) 12.6 µM [activator, partial curve]
COc1ccc(CCNC(=O)c2ccc3c(c2)S(=O)(=O)N=C2CCCCCN23)cc1 5.62 µM [activator, single point]
O=C(c1cc(-c2cccnc2)nc2ccccc12)N1CCCc2ccccc21 12.6 µM [activator, partial curve]

Growth rescue (activation), inconclusive:
COc1ccc(Cl)cc1NC(=O)CN(c1cc(C)cc(C)c1)S(=O)(=O)c1c(C)n[nH]c1C 23.3% [activator]
COc1ccc(C)cc1N(C)C(=O)Cc1c(C(=O)O)n(C)c2ccccc12 45.6% [activator]
